Test results as given in the supplement of paper PMC12217912.
This is one part of the list. The full chains were built here from the parent and the listed change. Inactive controls read about 0.05.

B1: TEV protease; numbered along this chain (parent)
chain: MGESLFKGPRDYNPISSSICHLTNESDGHTTSLYGIGFGPFIITNKHLFRRNNGTLVVQSLHGVFKVKDTTTLQQHLVDGRDMIIIRMPKDFPPFPQKLKFREPQREERICLVTTNFQTKSMSSMVSDTSCTFPSGDGIFWKHWIQTKDGQCGSPLVSTRDGFIVGIHSASNFTNTNNYFTSVPKNFMELLTNQEAQQWVSGWRLNADSVLWGGHKVFMVKPEEPFQPVKEATQL

Variants of: B1
Assay: raw area under fraction-flipped curve 0-4 h after induction (AUC4h, not background-subtracted), DNA-recorder readout of cleavage of the substrate (dimensionless); higher = more cleavage of the substrate by the protease variant
Conditions: temperature: 34 °C; time window: 0-4 h after rhamnose induction
Procedure: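 In vivo DNA recorder in E. coli TOP10(DE3) ΔrhaA at 34 °C. Each TEVp single-site mutant (parent TEVp 0) is paired with a single-site variant of the 7-mer TEVs (canonical ENLYFQ|S). The substrate sits between flexible linkers in a Bxb1-sfGFP-TEVs-SsrA fusion, so cleavage stabilises Bxb1 and speeds flipping of a recombination array, read by NGS. The value is the raw area under the fraction-flipped curve over 0-4 h after rhamnose induction (AUC4h), with ≥20 reads per time point. It is not background-subtracted; inactive controls average about 0.047.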
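Also: Bxb1 expression induced with 0.2% (w/v) L-rhamnose at OD600 near 0.5, cultures sampled hourly, flipped fraction per protease–substrate barcode pair counted by paired-end Illumina sequencing.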

Variant	area with substrate ENLYAQS	area with substrate ENLYDQS	area with substrate ENLYEQS	area with substrate ENLYGQS	area with substrate ENLYHQS	area with substrate ENLYNQS	area with substrate ENLYVQS	area with substrate ENLYWQS	area with substrate ENLYKQS	area with substrate ENLYMQS	area with substrate ENLYPQS	area with substrate ENLYRQS	area with substrate ENLYIQS	area with substrate ENLYLQS	area with substrate ENLYYQS	area with substrate ENLYSQS	area with substrate ENLYCQS	area with substrate ENLYQQS	area with substrate ENLYTQS
N53L	0.0448	0.0558	0.0627	0.0555	0.0459	0.0648	0.134	0.0655	–	–	–	–	–	–	–	–	–	–	–
I85A	0.0635	–	0.0579	–	–	–	–	–	0.0607	0.0572	0.06	0.059	–	–	–	–	–	–	–
G35T	0.0578	–	0.0466	–	0.0556	0.0471	0.0297	0.03	–	–	0.028	–	0.0415	0.0227	0.032	–	–	–	–
G35S	0.055	–	–	0.0878	–	0.0459	0.0627	–	0.038	0.0552	–	–	–	0.0661	–	–	–	–	–
G2N	0.0782	–	0.0346	–	–	–	–	0.092	–	–	0.103	0.0407	0.159	–	0.0721	–	–	–	–
G2A	0.117	–	–	0.088	0.0859	–	–	0.136	–	–	–	–	–	–	–	0.0787	–	–	–
Q75D	0.0638	0.0495	–	0.0647	–	0.049	–	–	0.0596	0.0575	0.034	–	0.0815	–	0.0556	0.0396	0.0674	0.0631	–
S4A	0.118	0.0063	–	0.0739	0.0624	–	–	–	–	–	–	0.0652	0.124	–	–	–	0.0781	–	–
K66A	0.0658	–	–	–	–	–	–	0.0927	0.0551	–	0.0848	0.0271	–	–	–	–	–	–	–
K66Y	0.0475	0.0516	–	0.0776	0.0787	–	0.163	0.0726	0.0563	0.101	–	–	0.0865	–	0.0716	0.0568	–	0.0486	–
K66H	0.0707	–	0.0717	0.0632	0.0688	–	–	0.107	0.124	0.0756	–	–	–	0.0844	–	–	–	–	0.083
K66Q	0.0674	–	0.0587	–	0.0728	0.0723	0.123	0.0926	–	0.1	0.0596	–	0.122	–	–	–	–	0.079	–
Q59N	0.0924	0.0718	–	–	0.0684	0.0447	–	0.0802	0.0676	–	0.0789	–	0.114	0.071	–	0.0444	0.0566	–	–
Q59R	0.0941	0.0522	0.069	–	–	0.0671	–	0.104	0.0436	0.0709	0.0691	0.0703	0.129	–	–	0.0575	–	–	–
D27E	0.083	0.0797	0.0549	0.0764	–	0.0704	–	0.0436	0.0539	–	0.0882	0.0566	0.117	–	–	–	0.113	–	0.0827
T30D	0.0759	0.0463	0.0782	0.0723	0.0637	0.0494	0.107	0.0751	0.059	0.103	–	0.0758	0.108	–	–	–	–	–	0.0757
V78D	0.0559	0.0583	0.064	0.0578	0.0561	0.0533	–	0.0624	0.036	0.0644	0.0591	0.05	0.0673	0.0681	0.0473	0.0526	0.049	0.0447	–

Variant	area with substrate ENLYAQS	area with substrate ENLYDQS	area with substrate ENLYEQS	area with substrate ENLYGQS	area with substrate ENLYHQS	area with substrate ENLYNQS	area with substrate ENLYVQS	area with substrate ENLYWQS	area with substrate ENLYKQS	area with substrate ENLYMQS	area with substrate ENLYPQS	area with substrate ENLYRQS	area with substrate ENLYIQS	area with substrate ENLYLQS	area with substrate ENLYYQS	area with substrate ENLYSQS	area with substrate ENLYCQS	area with substrate ENLYQQS	area with substrate ENLYTQS
V78E	0.0646	–	–	0.0594	0.0604	0.0645	–	0.0683	0.0556	0.0764	0.0629	0.0595	–	0.0704	–	0.068	0.0436	–	–
V78I	0.0896	–	0.0759	0.0581	0.0639	0.0574	–	–	–	–	–	0.0631	0.0454	–	–	0.068	–	–	0.0798
S60W	0.0794	–	0.0686	0.0648	–	0.0944	–	–	0.0645	–	0.0783	0.0605	0.139	–	0.0614	0.073	–	–	–
P9N	0.063	0.0666	–	–	0.067	–	0.115	0.0947	–	–	0.0911	0.0851	–	–	–	–	–	–	–
R50Y	0.079	–	0.0653	–	0.0714	0.0736	–	0.116	–	0.101	0.0858	0.0598	0.129	–	–	0.07	–	0.0931	–
R50W	0.073	0.0438	0.0537	0.0641	–	–	0.198	0.108	–	0.0882	0.0648	–	0.132	–	–	0.0788	–	0.0807	–
E3D	0.0764	–	0.0797	0.0575	0.058	–	–	–	0.0654	0.119	0.0759	–	0.155	–	–	–	–	–	–
E3A	0.0789	0.0675	0.0496	–	0.0403	0.0782	0.106	–	0.0094	–	0.0652	0.0797	0.121	–	0.0613	0.0852	–	–	0.0872
E3W	0.09	–	0.0759	0.0561	0.0727	–	–	–	–	0.113	0.0684	0.0669	–	0.0929	–	–	0.0908	0.0659	0.0672
S18G	0.0717	0.0723	0.0725	0.055	0.062	0.0637	0.089	0.075	0.0188	0.0712	0.074	0.0897	0.123	–	–	0.0403	0.0824	0.0556	0.0803
R81P	0.0554	0.0753	–	0.0231	–	–	0.0697	–	–	–	–	0.0624	0.0641	–	–	–	–	–	–
R81A	0.0406	0.0537	0.0609	0.0625	–	0.0589	–	0.0678	0.0588	–	0.0752	–	–	0.0825	–	0.0497	–	0.0593	–
I84H	0.0697	0.0626	–	0.0375	0.0453	0.0502	0.0589	0.0535	0.0833	0.0565	0.0563	0.0551	–	–	–	–	–	–	0.0476
L22M	0.0703	0.0551	0.0641	0.0677	0.0724	0.0637	–	0.0742	0.0574	0.0833	0.0723	0.0605	–	0.0752	0.0509	0.067	–	0.062	0.0761
V57E	0.0692	–	0.0664	0.0536	0.0426	0.0882	–	0.0884	–	–	0.074	0.0615	0.117	–	0.0605	0.0754	0.0716	–	0.0422
F65I	0.0424	0.0639	0.0526	0.0525	0.0624	–	–	0.0648	–	–	–	0.0569	–	–	–	–	0.0447	–	0.0798
